The campaign covered roughly 310,000 compounds. About 2,200 (0.71%) showed an effect of 50% or more. The effect is printed as a negative number. The list shows a part of the results.
The compounds below were run against human ether-à-go-go-related gene (hERG) potassium channel (human, UniProt Q12809) (assay: primary screen, population patch clamp on CHO cells stably expressing hERG).
Sequence of human ether-à-go-go-related gene (hERG) potassium channel (Q12809 whole entry, looked up): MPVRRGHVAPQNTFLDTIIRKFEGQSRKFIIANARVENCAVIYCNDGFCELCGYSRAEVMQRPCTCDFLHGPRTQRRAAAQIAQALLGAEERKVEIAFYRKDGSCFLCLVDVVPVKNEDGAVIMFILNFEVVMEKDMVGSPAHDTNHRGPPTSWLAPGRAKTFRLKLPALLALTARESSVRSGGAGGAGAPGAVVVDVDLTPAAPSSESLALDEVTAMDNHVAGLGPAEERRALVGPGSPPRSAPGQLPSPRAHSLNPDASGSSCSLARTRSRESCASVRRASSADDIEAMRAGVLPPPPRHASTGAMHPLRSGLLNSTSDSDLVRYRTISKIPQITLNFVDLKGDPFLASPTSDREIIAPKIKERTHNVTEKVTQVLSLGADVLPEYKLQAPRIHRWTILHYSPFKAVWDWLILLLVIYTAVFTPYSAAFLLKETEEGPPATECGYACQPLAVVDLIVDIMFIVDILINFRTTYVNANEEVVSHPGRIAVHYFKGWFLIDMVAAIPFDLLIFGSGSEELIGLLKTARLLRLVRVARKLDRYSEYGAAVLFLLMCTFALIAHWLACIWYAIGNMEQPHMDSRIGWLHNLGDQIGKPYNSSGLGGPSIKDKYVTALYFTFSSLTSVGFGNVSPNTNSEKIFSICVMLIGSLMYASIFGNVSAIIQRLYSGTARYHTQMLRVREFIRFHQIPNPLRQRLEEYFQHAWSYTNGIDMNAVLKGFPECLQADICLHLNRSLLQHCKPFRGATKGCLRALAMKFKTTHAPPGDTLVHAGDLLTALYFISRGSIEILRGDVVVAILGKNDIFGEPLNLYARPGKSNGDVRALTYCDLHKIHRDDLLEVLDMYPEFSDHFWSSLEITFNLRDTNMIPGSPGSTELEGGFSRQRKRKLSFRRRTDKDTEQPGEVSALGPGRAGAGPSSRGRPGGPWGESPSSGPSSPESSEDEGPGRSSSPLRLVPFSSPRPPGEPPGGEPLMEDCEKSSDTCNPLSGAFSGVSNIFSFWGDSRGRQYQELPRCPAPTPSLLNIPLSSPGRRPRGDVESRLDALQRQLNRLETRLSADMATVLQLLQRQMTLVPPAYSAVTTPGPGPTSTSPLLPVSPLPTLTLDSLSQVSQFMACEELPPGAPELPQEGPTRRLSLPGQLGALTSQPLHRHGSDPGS
For `CC#CCN1c2ccccc2[C@]23C[C@@H](C(=O)OC)N(C(=O)c4cc(C)oc4C)C2=NC(C(=O)OC)=C(C(=O)OC)[C@H]13`, the “hERG current change (%, negative = inhibition) at 1uM” value was 2.49%. For `Cc1cc(C)n(-c2ccc(C(=O)Nc3ccc(S(=O)(=O)N(C)C)cc3)cc2)n1`, the “hERG current change (%, negative = inhibition) at 1uM” value was 14.8%. For `Nn1c(SCc2cccc(F)c2)nnc1-c1ccncc1`, the “hERG current change (%, negative = inhibition) at 1uM” value was 6.55%. With `COC(=O)c1ccc(CSc2nnc3ccccn23)o1` the “hERG current change (%, negative = inhibition) at 1uM” value was 0.835%. With `Cc1cc(C)c2nc(-n3nc(C)cc3N)cc(C)c2c1` the “hERG current change (%, negative = inhibition) at 1uM” value was 18.6%. With `CCOC(=O)c1sc(=NC(=O)c2ccccc2)n(C)c1C` the “hERG current change (%, negative = inhibition) at 1uM” value was 10.7%. For `COc1ccc(OCC(=O)NCCS(=O)(=O)N2CCN(c3ccc(F)cc3)CC2)cc1`, the “hERG current change (%, negative = inhibition) at 1uM” value was 3.41%. `O/N=C(\c1ccccc1)C(O)c1ccccc1` (stereo not drawn) was tested, and the “hERG current change (%, negative = inhibition) at 1uM” value was 5.91%. In the case of `COc1ccc(Cl)cc1N1C(=O)C2CCCN2C1c1ccc(F)cc1` (stereo not drawn), the “hERG current change (%, negative = inhibition) at 1uM” value is reported as 6.63%. `COc1ccc(S(=O)(=O)NCC2CCCN(C(=O)CCSC)C2)cc1` (stereo not drawn) was tested, and the “hERG current change (%, negative = inhibition) at 1uM” value was 21.7%. For `CCn1c2ccccc2c2cc(N)ccc21`, the “hERG current change (%, negative = inhibition) at 1uM” value was 15.4%. `NC(N)=Nc1nc2ccccc2o1` was tested, and the “hERG current change (%, negative = inhibition) at 1uM” value was 9.79%. In the case of `Br.C/C(CC1CC(COCC(C)C)OC1=O)=N\Nc1nc(-c2ccccc2)cs1` (stereo not drawn), the “hERG current change (%, negative = inhibition) at 1uM” value is reported as 6.71%. With `CCC(C)(C)C1CCC2(CC1)NC(=O)N(CC(=O)Nc1nc(-c3ccc(C)cc3)cs1)C2=O` (stereo not drawn) the “hERG current change (%, negative = inhibition) at 1uM” value was 20.4%. With `Cn1c(-c2ccc([N+](=O)[O-])cc2)nc2ccccc21` the “hERG current change (%, negative = inhibition) at 1uM” value was 6.58%. `CCN(CC)c1ccc2c(c1)oc(=O)c1c(Cl)cc(=O)oc12` was tested, and the “hERG current change (%, negative = inhibition) at 1uM” value was 10.8%. In the case of `O=c1cc(C(F)F)oc2c1ccc1ccccc12`, the “hERG current change (%, negative = inhibition) at 1uM” value is reported as 3.09%. `CC(=O)N1CCc2c(sc3c2c(=O)n(-c2ccccc2)c(=O)n3Cc2ccccc2Cl)C1` was tested, and the “hERG current change (%, negative = inhibition) at 1uM” value was 10.8%. With `N#Cc1c2n(c3c(=O)[nH]cnc13)CCCC2` the “hERG current change (%, negative = inhibition) at 1uM” value was 12.8%. With `Cc1nnc(Sc2c(N)n(C)c(=O)[nH]c2=O)s1` the “hERG current change (%, negative = inhibition) at 1uM” value was -5.72%. In the case of `CCOC(=O)C(=Cc1ccc(-n2ccnc2)cc1)C(=O)OCC`, the “hERG current change (%, negative = inhibition) at 1uM” value is reported as -10.8%. `CCN1C(=O)[C@H]2[C@@H](c3ccc(-c4ccc(F)cc4)cc3)N[C@@](CC(C)C)(C(=O)OC)[C@H]2C1=O.O=C(O)C(F)(F)F` was tested, and the “hERG current change (%, negative = inhibition) at 1uM” value was 13.6%. With `Cc1ccc2c(c1)c(-c1ccccc1)nc1nnnn12` the “hERG current change (%, negative = inhibition) at 1uM” value was 1.18%. With `CCOC(=O)C(CC(=O)O)NCc1ccco1` (stereo not drawn) the “hERG current change (%, negative = inhibition) at 1uM” value was 7.71%. In the case of `CCOC(=O)CNc1nc(-c2ccncc2)nc2ccccc12`, the “hERG current change (%, negative = inhibition) at 1uM” value is reported as 11.8%. `CC(C)c1nnc(NC(=O)CC(C)c2ccccc2)s1` (stereo not drawn) was tested, and the “hERG current change (%, negative = inhibition) at 1uM” value was 10.6%. For `CCCSc1nnc(N)s1`, the “hERG current change (%, negative = inhibition) at 1uM” value was 14.6%. For `Cc1ccc(CN(C)CC(=O)Nc2ccc3c(c2)CCC3)cc1`, the “hERG current change (%, negative = inhibition) at 1uM” value was 12.2%. For `Cc1ccc(S(=O)(=O)N2CCOCC2)cc1NC(=O)COC(=O)c1ccc2c(c1)OCCO2`, the “hERG current change (%, negative = inhibition) at 1uM” value was 8.88%. For `CC(C)NC(=O)c1ccccc1NC(=O)C(C)Oc1ccccc1` (stereo not drawn), the “hERG current change (%, negative = inhibition) at 1uM” value was 5.95%. For `COc1ccc(C(=O)NNC(=O)CCc2ccccc2OC)cc1`, the “hERG current change (%, negative = inhibition) at 1uM” value was 9.71%. For `Cc1cc(C(=O)C(=O)O)c(C)n1-c1ccc(Cl)cc1`, the “hERG current change (%, negative = inhibition) at 1uM” value was 4.39%. In the case of `Cc1ccc(NC2CC(C)NC(=S)N2)cc1` (stereo not drawn), the “hERG current change (%, negative = inhibition) at 1uM” value is reported as 7.87%. With `Cn1c(=O)c2c(nc(NCCCN3CCOCC3)n2Cc2ccc(Cl)cc2)n(C)c1=O` the “hERG current change (%, negative = inhibition) at 1uM” value was -7.87%. With `CCn1c(COc2cccc(C)c2)nnc1SCC(=O)CC(=O)Nc1ccccc1OC` the “hERG current change (%, negative = inhibition) at 1uM” value was -4.67%. For `CCOc1ccc(C(=O)Nc2nnc(S(=O)(=O)Nc3ccccc3C)s2)cc1`, the “hERG current change (%, negative = inhibition) at 1uM” value was 14.7%. `Cc1cc(-c2cc(C(=O)Nc3ccccc3)on2)nc(NC2CCCC2)n1` was tested, and the “hERG current change (%, negative = inhibition) at 1uM” value was 7.78%. With `COc1cccc(NC(=O)CNC(C)CCC(C)C)c1.Cl` (stereo not drawn) the “hERG current change (%, negative = inhibition) at 1uM” value was 11.6%. In the case of `COc1ccc(C2Nc3ccccc3C(=O)N2c2ccccc2)cc1CSc1ccccn1` (stereo not drawn), the “hERG current change (%, negative = inhibition) at 1uM” value is reported as 8.41%. With `Cc1nn(Cc2ccccc2)c(C)c1/C=N/NC(=O)c1ccncc1` the “hERG current change (%, negative = inhibition) at 1uM” value was -15.6%. With `COc1ccccc1C1(CC(=O)O)CCOC(C)(C)C1` (stereo not drawn) the “hERG current change (%, negative = inhibition) at 1uM” value was 12.2%. For `CC(C)OCCCNC(=O)CCc1nc(-c2ccccc2)no1`, the “hERG current change (%, negative = inhibition) at 1uM” value was 15.3%. With `Cc1ccsc1/C=N/NC(=O)CN1CCN(S(=O)(=O)c2ccc(Br)cc2)CC1` the “hERG current change (%, negative = inhibition) at 1uM” value was -0.365%. In the case of `O=C(CNC(=O)c1ccc(Br)o1)OCC(=O)c1cccc([N+](=O)[O-])c1`, the “hERG current change (%, negative = inhibition) at 1uM” value is reported as -3.61%. In the case of `O=C(c1ccccc1)N1N=C(C(F)(F)F)CC1(O)c1ccccc1` (stereo not drawn), the “hERG current change (%, negative = inhibition) at 1uM” value is reported as 14%. With `CS(=O)(=O)c1ccc(CNC(=O)C2(C(F)(F)F)C/C(=C/CCO)CCCO2)cc1` (stereo not drawn) the “hERG current change (%, negative = inhibition) at 1uM” value was -1.54%. `CC(C)OCCCNC(=O)C1CC(=O)N(CCc2ccccc2)C1` (stereo not drawn) was tested, and the “hERG current change (%, negative = inhibition) at 1uM” value was 10.2%. `COc1cc(C2=NOC(C(=O)Nc3cc(C)on3)C2)cc(OC)c1OC` (stereo not drawn) was tested, and the “hERG current change (%, negative = inhibition) at 1uM” value was 7.34%. With `COc1ccc(-c2cn[nH]c2-c2ccc(OCc3ccccc3)cc2O)cc1` the “hERG current change (%, negative = inhibition) at 1uM” value was 11.9%. For `CC(Oc1ccccc1F)C(=O)NNC(=O)c1cccc(S(=O)(=O)N2CCN(C)CC2)c1` (stereo not drawn), the “hERG current change (%, negative = inhibition) at 1uM” value was -5.03%. `COc1ccc(-c2onc(C)c2C)cc1S(=O)(=O)NCCc1ccco1` was tested, and the “hERG current change (%, negative = inhibition) at 1uM” value was 8.93%. For `Cn1c(SCCN2CCCC2)nnc1C1CCN(S(=O)(=O)c2cccc(F)c2)CC1`, the “hERG current change (%, negative = inhibition) at 1uM” value was 10.3%. For `CCOc1ccc(NCC(=O)N/N=C/C=C/c2ccccc2)cc1`, the “hERG current change (%, negative = inhibition) at 1uM” value was 16%. With `CC(=O)c1cccc(CN2CCC(n3nccc3NC(=O)CCCc3ccccc3)CC2)c1` the “hERG current change (%, negative = inhibition) at 1uM” value was -6.28%. `CC1=CC(C)(C)N(C(=O)CSc2ncn[nH]2)c2ccc(C)cc21` was tested, and the “hERG current change (%, negative = inhibition) at 1uM” value was 7.56%. For `O=C(c1ccc(-c2ccccc2)cc1)N1CCN(c2ccccc2F)CC1`, the “hERG current change (%, negative = inhibition) at 1uM” value was 16.7%. `CCCn1c(SCC(=O)c2cc(C)n(C3CC3)c2C)n[nH]c1=O` was tested, and the “hERG current change (%, negative = inhibition) at 1uM” value was -0.838%.
